# Over roughly 110,000 compounds, “z-score” has its median near -0.1; the highest 2% begin near 2. Some of the results follow.
# Biological target: Metabotropic glutamate receptor 8 (Rattus norvegicus) (UniProt P70579)
# Assay: mGluR8 Gi/Go-coupled signaling modulation – cell-based, rat, thallium flux, HTS, primary screen (AID 488969)
# Conditions: HEK293 rat mGluR8, GIRK (G protein-gated inwardly rectifying potassium channel) thallium flux, FluoZin2; at 10 µM; stronger effect = higher value; submaximal glutamate (EC20) added with thallium
# Chain of UniProt P70579 (P70579 whole entry, looked up): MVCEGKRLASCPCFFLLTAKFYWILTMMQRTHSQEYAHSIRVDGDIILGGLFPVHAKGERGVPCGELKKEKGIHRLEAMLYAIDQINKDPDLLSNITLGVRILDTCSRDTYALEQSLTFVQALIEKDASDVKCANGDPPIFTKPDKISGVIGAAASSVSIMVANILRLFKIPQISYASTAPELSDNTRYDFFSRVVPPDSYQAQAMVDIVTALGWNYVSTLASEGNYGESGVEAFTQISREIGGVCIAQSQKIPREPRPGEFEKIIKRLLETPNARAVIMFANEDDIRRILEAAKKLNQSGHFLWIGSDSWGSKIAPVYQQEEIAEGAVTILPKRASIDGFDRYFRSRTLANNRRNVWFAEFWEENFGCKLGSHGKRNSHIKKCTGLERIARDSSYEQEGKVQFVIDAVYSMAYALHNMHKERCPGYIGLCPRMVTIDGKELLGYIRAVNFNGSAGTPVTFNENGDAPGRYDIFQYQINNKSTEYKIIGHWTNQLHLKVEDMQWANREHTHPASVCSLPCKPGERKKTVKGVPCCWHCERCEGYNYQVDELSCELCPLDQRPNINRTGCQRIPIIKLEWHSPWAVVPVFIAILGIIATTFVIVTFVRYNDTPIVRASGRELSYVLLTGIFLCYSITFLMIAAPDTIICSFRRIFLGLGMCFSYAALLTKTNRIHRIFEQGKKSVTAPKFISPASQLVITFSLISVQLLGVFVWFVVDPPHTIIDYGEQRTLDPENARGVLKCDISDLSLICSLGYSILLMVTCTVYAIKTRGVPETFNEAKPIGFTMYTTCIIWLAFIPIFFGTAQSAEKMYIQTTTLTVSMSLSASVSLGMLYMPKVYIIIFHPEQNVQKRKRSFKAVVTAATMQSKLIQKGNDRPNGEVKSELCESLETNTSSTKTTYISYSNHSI
row,SMILES,z-score
1,O=C(Cc1ccc2c(c1)OCCO2)c1c(O)cc(O)cc1O,-0.142
2,COc1cc(OC)cc(C(=O)N[C@H](C(=O)Nc2nc3c(s2)CCCC3)C(C)C)c1,-0.146
3,CCOC(=O)c1cn2c3c(c(F)c(F)cc3c1=O)SC(N1CCOCC1)=N2,-1.05
4,CCOc1ccccc1OCCN1CCC(Cc2ccccc2)CC1,-0.00951
5,CCc1ccc(NC(=O)CSc2nnc(COc3ccc4c(c3)CCCC4)o2)cc1,0.00781
6,CCCCC(=O)NC(=S)Nc1ccccc1C(=O)Nc1ccccc1,-0.166
7,Cn1cc(C(=O)c2ccc(Cl)cc2Cl)cc1C(=O)N/N=C(\N)COc1ccc(F)cc1,-0.962
8,CCOC(=O)N/N=C/c1ccc(F)cc1F,-0.344
9,CCOC(=O)NC1(C(F)(F)F)NC(=O)N(c2cccc(C(F)(F)F)c2)C1=O (configuration not stated),0.237
10,Cc1cc(C)c2nc(-c3ccccn3)cc(C(=O)NCc3ccco3)c2c1,-0.369
11,CCOC(=O)c1nn(-c2ccc(F)cc2)c(C)c1C(C)=O,1.41
12,Cc1ccc(-c2nc(CSCC(=O)N3CCN(c4ccccn4)CC3)c(C)o2)cc1,-0.534
13,Nn1c(SCC(=O)Nc2ccccc2F)nnc1-c1cccnc1,0.367
14,COCCOCC(O)CN1CCN(c2ccc(C)cc2)CC1 (configuration not stated),-0.226
15,CCC1CCCCN1C(=O)c1cccc(S(=O)(=O)Nc2cc(C(F)(F)F)ccc2Cl)c1 (configuration not stated),-0.233
16,Cc1cc2nc(C3CCN(CC4COc5ccccc5O4)CC3)[nH]c2cc1C (configuration not stated),0.138
17,O=C1CC(N2CCN(Cc3ccccc3)CC2)C(=O)N1c1ccc2c(c1)OCCO2 (configuration not stated),-0.057
18,O=C(NCc1ccco1)c1cc(-c2ccncc2)nc2ccccc12,-0.497
19,COc1ccc(/C=C2\CCc3ccccc3C2=O)cc1Cn1nc(C)cc1C,-0.763

row,SMILES,z-score
1,COc1ccccc1N1CCN(C(=O)CCc2ccc(S(=O)(=O)NC(C)C)cc2)CC1,-0.363
2,COC(=O)c1ccccc1NC(=O)N1CCN(C/C=C/c2ccccc2)CC1,-1.05
3,Cc1ccc(Nc2cc(-n3nc(C)cc3C)ncn2)cc1,-0.269
4,CC1=CC(=O)N(c2ccc(C)cc2)C1c1ccc(Cl)cc1 (configuration not stated),-0.379
5,CCC(C)(C)NC(=O)C(c1ccccc1)N(Cc1cccnc1)C(=O)c1csnn1 (configuration not stated),0.0873
6,CCCCc1nc2sc3c(=O)n(N)cnc3c2c2c1CCCC2,-0.123
7,COc1ccc(-c2ccc(C#N)c(SCC(=O)Nc3sc4c(c3C#N)CCC4)n2)cc1,-0.111
8,O=C(CCN1c2ccccc2Sc2ccccc21)Nc1ccccc1,-0.189
9,Cc1cc([N+](=O)[O-])nn1Cc1ccccc1F,-0.213
10,COc1ccccc1CNC(=O)CSc1ccc(C)cc1,-0.171
11,N#C/C(=C\c1cn[nH]c1-c1ccc(Cl)cc1)C(=O)NCc1ccccc1,-0.224
12,O=C(/C=C/NNC(=O)c1ccccc1)c1ccc(Br)cc1,1.33
13,COC(=O)c1ccc(NC(=O)C2C3CCC(C3)C2C(=O)O)cc1 (configuration not stated),-0.102
14,OC(COc1ccccc1)Cn1cc(Br)cn1 (configuration not stated),0.478
15,COc1cc(OC)c(C2Oc3nc(SC)nnc3-c3ccccc3N2C(C)=O)cc1OC (configuration not stated),0.147
16,CSc1nc(C)cc(OCCO)n1,0.402
17,Cn1nc(OCc2ccccc2)ccc1=O,-0.202
18,COc1cc2cc(CN(C(=O)Nc3ccccc3)C3CCCC3)c(=O)[nH]c2cc1OC,-0.291
19,Cc1ccc(S(=O)(=O)N2CCOCC2)cc1N/N=C(\C#N)c1nc2ccccc2[nH]1,0.221

row,SMILES,z-score
1,N/C(=N\OC(=O)/C=C/c1ccc(Br)cc1)c1ccccn1,-0.142
2,C(=N\Nc1nc(N2CCOCC2)nc(N2CCOCC2)n1)/c1ccncc1,-0.0871
3,CC(Sc1nc2ccccc2c(=O)[nH]1)C(=O)O (configuration not stated),1.3
4,O=C(N/N=C/c1c(Cl)cccc1Cl)c1n[nH]c2c1CCCC2,-0.132
5,Cc1ccc(Cl)cc1NC(=O)c1cccc(OC(F)F)c1,-0.2
6,COCCCn1c2nc3ccccc3nc2c2c(=O)n(CC3CCCO3)cnc21 (configuration not stated),-0.601
7,Nc1nnc(CC2=CCCCC2)s1,0.175
8,COCCNc1cc(N)c([N+](=O)[O-])cc1[N+](=O)[O-],-0.484
9,CCOC(=O)c1ccccc1NC(=O)/C=C/C(=O)O,-0.105
10,CCCNc1c(N)c(=O)oc2ccccc12,-1.25
11,Cc1ccc(NC(=O)CC2Nc3ccccc3NC2=O)cc1Cl (configuration not stated),0.287
12,O=C(Nc1nc2c(c(=O)[nH]1)CCCC2)C1CC1,-0.428
13,CCC(Sc1ccc(C(=O)O)cc1)C(=O)O (configuration not stated),0.0621
14,COc1ccc(C(=O)Nc2cccc(OC(=O)c3ccc(C)c(C)c3)c2)cc1,-0.176
15,CCCCOc1ccccc1NC(=O)c1ccco1,-0.751
16,N#CC(C#N)=Cc1ccc(-c2ccc(S(=O)(=O)N=C(N)N)cc2)o1,0.0352
17,O=C(N/N=C\c1ccc(F)cc1)c1cc(OCC(F)(F)F)ccc1OCC(F)(F)F,-0.242
18,O=C(Nc1cccc(Cl)c1)Nc1nnc(-c2ccncc2)s1,-0.194
19,Cc1ccc(C)c(N(CC(=O)NCc2ccco2)C(=O)CCC(=O)Nc2ccccn2)c1,-0.679

# — PubChem BioAssay AID488969 (Vanderbilt High Throughput Screening Facility, 2010)
